Data from the RNAGym collection of RNA variant scans (doi:10.1073/pnas.2313332121).
This sample is rich in variants without activity.

B1: TPR 5TU (parent)
chain: GGAUCUUCUCGAUCUAACAAAAAAGACAAAUCUGCCACAAAGCUUGAGAGCAUCUUCGGAUGCAGAGGCGGCAGCCUUCGGUGGCGCGAUAGCGCCAACGUUCUCAACUAUGACACGCAAAACGCGUGCUCCGUUGAAUGGAGUUUAUCAUG

Variants of: B1
Test: polymerase ribozyme fitness, log enrichment relative to wild type (log ratio); higher = more active; in vitro selection for triplet polymerase activity
In short: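 One round of in vitro selection, in triplicate, was applied to PCR-built, transcribed mutant libraries of each subunit of a heterodimeric triplet polymerase ribozyme. The steps were annealing with a biotinylated primer, partner subunit and triplets, incubation frozen at −7 °C, gel excision of extended constructs, streptavidin-bead capture and RT-PCR. Fitness is the logarithm, base 2, of genotype enrichment over wild-type enrichment from inverse-variance-weighted replicate averages of Illumina-sequenced inputs and outputs, keeping genotypes with ≥10 input reads and ≥1 read per output.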

Row | Variant | polymerase ribozyme fitness (log ratio)
1 | GGAUCUUCUCGGUCUAACAAAAAAGACAAAUCUGCCACAAAGCUUGAGAGCAUUUGCGCAUGAAGAGGCGGGAGCCUUCGGUGGCGCGAUAGCGCCAACGUUCUCAACUAUGACACGCAAAACGCGUGCUCCGUUGAAUGGAGUUUAUCAUG [A12G C54U U56G G59C C63A C72G] | ≤ -4.2
2 | GGAUCUUCUCGGUCUAACAAAAAAGAUAAAUCUGCCACAAAGCUUUAGAGCAUCUUAGGAUGCAGAGGCGGCAGCCUUCGGUGGGGCGAUAGCGCCAACGUUCUCAACUAUGACACGCAAACCGCGUGCUCCGUUGAAUGGAGUUUAUCAUG [A12G C27U G46U C57A C85G A122C] | -3.63
3 | GGAUCUUCUCGGUCUAACAAAAAAGACAAAUCUGCCACAAAGCUUGAGAGCAUAUUCCGAUGCAGAGGCGGCAGCCUUCUGUGGCGCGAUAACGCCAACGUUCUCAACUAUCACACGCAAAACGCGUGCUCCGUUGAAUGGAGUUUAUCAUG [A12G C54A G58C G80U G92A G112C] | ≤ -4.2
4 | GGAUCUUCUCGGUCUAACAAAAAAGACAAAUCUGCCAAAAAGCUUGAGAGCAUCUUCGGAUGCAGAGGCGGCAGCCUUCGGUGGCGCGAUAGCGCGAACGUUCUCAACUAUGACACGCAAAACGCGUGCUCCGUUGAAUGGAGUUUAUCAUG [A12G C38A C96G] | -0.0836
5 | GGAUCUUCUCGGUCUAAGAAAAAAGACAAAUCUGCCACAAAGCUUGAGAGCAUCUUCGGAUGCAGUGGGGGCAGCCUUCGGUGGCGCGAUAGCGCCAAAGUUCUCAACUAUGACACGCAAAACGCGUGCUCCGUUGAAUGGAGUUUAUCAUG [A12G C18G A66U C69G C99A] | ≤ -4.2
6 | GGAUCUUCUCGGUCUAACAAAAAAGACAAAUCUGCCACAAAGCUUGAGAGCAUCUUCGGAUGCAGAGGCGGCAGCCUUCGGUGGGGCGAUAGCGCCAACGUUCUCAACUAUGACACGCAAAACGCGUGCUCCGUUGAAUGGAGUUUAUCAUG [A12G C85G] | -1.96
7 | GGAUCUUCUCGGUCUAACAAAAAAGACAAAUCUGCCACAAAGCUUGAGAGCAUCUUCGGAUGCAGAGGCGGCAGCCUUCGGUGGUGCGAUAGCGCCAACGUUCUCAACUAUGACACGCAAAACGCGUGCUCCGUUGAAUGGAGUUUAUCAUG [A12G C85U] | 0.000103
8 | GGAUCUUCUCGGUCUAACAAAAAAGACAAAUCUGCCACAAAGCUUGAGAGCAUCUUCGGAUGCAGAGGCGGCAGCCUUCGGUGGAGCGAUAGCGCCAACGUUCUCAACUAUGACACGCAAAACGCGUGCUCCGUUGAAUGGAGUUUAUCAUG [A12G C85A] | -1.31
9 | GGAUCUUCUCGGUCUAACAAAAAAGACAAAUCUGCCACAAAGCUUGAGAGCAUUUUCGGAUGCAGAGGCGGCGGCCUUCGGUGCCGCGAUAGCGCGAACGUUCUCAACUAUGACACGCAAAAUGCGUGCUCCGUUGAAUGGAGUUUAUCAUG [A12G C54U A73G G84C C96G C123U] | ≤ -4.2
10 | GGAUCUUCUCGGUCUAAAAAAAAUGAAAAAUCUGCCACAAAGCUUGAGAGCAUCUUCGGAUGCAGAGGCGGCAGCCUUCGGUGGCGCGAUAGCGCCAACGUUAUCAACUAUGACACGCAAAACGCGUGCUCCGUUGAAUGGAGAUUAUCAUG [A12G C18A A24U C27A C103A U144A] | ≤ -4.2
11 | GGAUCUUCUCGGUCUAACAAAAAAGACAAAUCUGCCACAAAGCUUGAGAGCAUCUUCGGAUGCAGAGGCGGCAGCCUUCGGUGGAGCGAUAGCGCCAACGUUCUCAACUAUGUCACGCAAAACGCGUGCUCCAUUGAAUGGAGUUUAUCAAG [A12G C85A A113U G133A U151A] | ≤ -4.2
12 | GGAUCUUCUCGGUCUAACAAAAAAGACAAAUCUGCCACAAAGCUUGAGAGCAUCUUCGGAUGCAGAGGCGGUAGCCUUCGGUGGCGCUAUAGCGCCAACGUUCUCAACUAUGACACGCAUAACGCGUGCUCCGUUGAAUGUAGUUUAUCAUG [A12G C72U G88U A120U G141U] | ≤ -4.2
13 | GGAUCUUCUCGGUCUAACAAAAAAGACAAAUCUGCCACAAAGCUUGAGAGGAUCUACGGAUGCAGAGGCGGCAGCCUUCGGUGGUGCGAUAGCGCGAACGUUCUCAACUAUGACACGCAAAACGCGUGCUCCGUUGAAUGGAGUUUAUCAUG [A12G C51G U56A C85U C96G] | ≤ -4.2
14 | GGAUCUUCUCGGUUUAACAAAAAAGACAAAUCUGCCACAAAGCUUGAGAGCAUCUUCGGAUGCAGAGGCGGCAGCCUUCGGUGGCGCGAUAUCGCCAACGUUCUCAACUACGACACGCAAAACGCGUGCUCCGUUGAUUGGAGUUUAUCAUG [A12G C14U G92U U111C A138U] | ≤ -4.2
15 | GGAUCUUCUCGGUCUAACAAAAAAGAUAAAUCUGCCACCAAGCUUGAGAGCAUCUUAGGAUGCAGAGGCGGCAGACUUAGGUUGCGCGAUAGCGCCAACGUUCUCAACUAUGACACGCAAGACGCGUGCUCCGUUGAAUGGAGUUUAUCAUG [A12G C27U A39C C57A C75A C79A G83U A121G] | ≤ -4.2
16 | GGAUCUUCUCGGUCUAACAAAAAAGACAAAUCUGCAACAAAGCUUGAGAGCAUCGUCGGAUGCAGAGGCGGCAGCCUUCGGUGGCGCGAUAGCACCAACGUUCUCAACUAUGACACGCAAAACGCGUGCUCCGUUGAAUGCAGUUUAGCAUG [A12G C36A U55G G94A G141C U148G] | ≤ -4.2
17 | GGAUCUUCUCGGUCUAACAAAAAAGACAAAUCUGCCACAAAGCUUGAGAGCAUCUUAGGAUGCAGAGGCGGCAGCCUUCGGUGGCGCGAUAGCGCCAACGUUCUCAACUAUGACACGCAGAACGCGUGCUCCGGUGAAUGGAGUUUAUAAUG [A12G C57A A120G U134G C149A] | ≤ -4.2
18 | GGAUCUUCUCGGUCUAAUGAAAAAGACAAAUCUGCCACAAAGCUUGAGAGCAUCUUCGGAUGCAGAGGCGGCAGCCUUCGGUGACUCGAUAGCGACAAUGAUCUCAACUAUGACACGCAAAAGGCGUGCUCCGUUGAAUGGAGUUUAUCAUG [A12G C18U A19G G84A G86U C95A C99U U101A C123G] | ≤ -4.2
19 | GGAUCUUCUCGGUUUAACAACACAGACAAAUCUGCCACAAAGCUUGAGAGCAUCUUCGGAUCCAGAGGCGGCAGCCUUCGGUUGCGCGAUAGCGCCAAUGUUCUCGACUAUGACACGCAAAACGCGUGCUCCGUUGAAUGGAGUUUAUUAUG [A12G C14U A21C A23C G62C G83U C99U A106G C149U] | ≤ -4.2
